Results: the antibiotic and cytotoxicity screens of Wong et al. (2023)
The list shows a part of the results.

Assays:
[1] = test system: HSkMC (human skeletal muscle cells); experiment: cytotoxicity call (relative viability < 0.9); details: 10 µM
[2] = test system: S. aureus RN4220; experiment: growth inhibition call (relative growth <= 0.2); details: 50 µM

C[C@@H]1CN([C@H](C)CO)C(=O)c2cccc(NC(=O)Nc3cccc4ccccc34)c2O[C@H]1CN(C)C(=O)Nc1ccc2c(c1)OCO2
cytotoxicity call [1]: inactive
growth inhibition call [2]: inactive

C[C@H](CO)N1C[C@H](C)[C@H](CN(C)C(=O)Nc2ccc(C(F)(F)F)cc2)Oc2ccc(NC(=O)C3CCCCC3)cc2CC1=O
cytotoxicity call [1]: inactive
growth inhibition call [2]: inactive

C[C@H]1CCCCO[C@H](CN(C)Cc2ccc(Cl)c(Cl)c2)[C@@H](C)CN([C@@H](C)CO)C(=O)c2cc(NS(=O)(=O)c3ccc(F)cc3)ccc2O1
cytotoxicity call [1]: active
growth inhibition call [2]: inactive

COc1ccc(S(=O)(=O)N(C)C[C@@H]2Oc3ccc(NS(=O)(=O)c4ccc(F)cc4)cc3C(=O)N([C@H](C)CO)C[C@@H]2C)cc1
cytotoxicity call [1]: inactive
growth inhibition call [2]: inactive

COc1ccc(NC(=O)N(C)C[C@H]2Oc3cc(C#CCN(C)C)ccc3S(=O)(=O)N([C@@H](C)CO)C[C@@H]2C)cc1
cytotoxicity call [1]: inactive
growth inhibition call [2]: inactive

C[C@@H]1CC=CC[C@H](c2cccc(Cl)c2)NC(=O)[C@@H](Cc2ccccc2)N(C)C(=O)c2ccccc2O1
cytotoxicity call [1]: inactive
growth inhibition call [2]: inactive

N=C(N=C(N)N)Nc1cccc(Cl)c1
cytotoxicity call [1]: inactive
growth inhibition call [2]: inactive

C[C@@H]1CN([C@H](C)CO)C(=O)Cc2cc(NC(=O)NC3CCCCC3)ccc2O[C@H]1CN(C)Cc1ccc(Cl)c(Cl)c1
cytotoxicity call [1]: active
growth inhibition call [2]: inactive

Cc1noc(C)c1S(=O)(=O)N(C)C[C@H]1Oc2ccc(NS(=O)(=O)c3cccs3)cc2CC(=O)N([C@@H](C)CO)C[C@H]1C
cytotoxicity call [1]: inactive
growth inhibition call [2]: inactive

CN(C)CCN(Cc1ccc(Cl)cc1)c1ccccn1.Cl
cytotoxicity call [1]: inactive
growth inhibition call [2]: inactive
